Laboratory results reported in PubChem BioAssay (NCATS).
Where “and” joins values, the source holds several entries; their conditions need not be identical. Equal values may be shown once. The shares of active, inactive and inconclusive entries below differ from those in the screen. Potencies beside an inconclusive call are fits to weak or partial responses and may not hold up. Calls of active or inactive are those of the source. Calls come from the whole dose curve; as a rule, active = well fitted inhibition curve with a large enough effect; inconclusive = small, poorly fitted or top-dose-only effect, or effect the other way; inactive = flat fitted curve, though single readings scatter.

Assay: qHTS for Inhibitors of Plasmodium falciparum (CP250) proliferation (AID 504320);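 for activity change, negative = inhibition: plate controls were DMSO vehicle for no effect and 0.29 µM artemisinin control for full effect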
Conditions: P. falciparum CP250 in erythrocytes, SYBR Green DNA, 72 h; series mostly up to 6.7 µM; activity change, negative = inhibition: at the top concentration
How it was run: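 Erythrocytes infected with P. falciparum line (0.3% parasitemia, 2.5% hematocrit final) incubated with compounds 72 h at 37 °C, 5% CO2; SYBR Green lysis buffer added, fluorescence read next day. Normalized to 0.29 uM artemisinin and DMSO.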
Potency is the fitted concentration of half-maximal effect; tags give direction and shape of the fitted curve.

**Q.** Which Potency does the source give for C=CCN1c2ccccc2[C@]23C[C@@H](C(=O)OC)N(S(=O)(=O)c4ccc([N+](=O)[O-])cc4)C2=NC(C(=O)OC)=C(C(=O)OC)[C@H]13 here?
**A.** Its Potency is inconclusive: 4.26 µM [inhibitor, single point].

**Q.** Which Potency does the source give for COC(=O)C1=C(C(=O)OC)[C@@H]2N(C)c3ccccc3[C@@]23C[C@@H](C(=O)OC)N(S(=O)(=O)c2ccc([N+](=O)[O-])cc2)C3=N1 here?
**A.** Its Potency is inconclusive: 4.26 µM [inhibitor, single point].

**Q.** Which “activity change, negative = inhibition” value does the source give for COC(=O)N1C(/C=C/C=C/c2ccc(OC)cc2)=Cc2ccccc2C1CC(C)=O (stereo not given) here?
**A.** The value was inactive: -14.8%.

**Q.** With C=CCN1c2ccccc2[C@]23CCC(=O)N(CCOC)C2=NC(C(=O)OC)=C(C(=O)OC)[C@H]13 as the molecule, how does the Potency read?
**A.** Its Potency is “inactive”.

**Q.** For COC(=O)C1=C(C(=O)OC)[C@@H]2N(C)c3ccccc3[C@@]23C[C@@H](CO)N(C(=O)NC2CCCCC2)C3=N1, which Potency is on record?
**A.** The Potency was inconclusive: 1.69 µM [inhibitor, single point].

**Q.** For CC1=CC[C@@H](COc2ccccc2)O[C@@]2(C1)C(=O)N(Cc1ccccc1C(F)(F)F)c1ccccc12, which Potency is on record?
**A.** Its Potency is inconclusive: 1.51 µM [inhibitor, partial curve, poor fit].

**Q.** Which Potency does the source give for COC(=O)C1=C(C)N(Cc2ccccc2)C(=NCCc2ccc([N+](=O)[O-])cc2)NC1c1cccc(F)c1 (stereo not given) here?
**A.** The Potency was inconclusive: 2.39 µM [inhibitor, partial curve].

**Q.** For CC#CCN1c2ccccc2[C@]23C[C@@H](C(=O)OC)N(S(=O)(=O)CCCC)C2=NC(C(=O)OC)=C(C(=O)OC)[C@H]13, which Potency is on record?
**A.** Its Potency is inconclusive: 4.26 µM [inhibitor, partial curve, poor fit].

**Q.** With C=CCN1c2ccccc2[C@]23C[C@@H](C(=O)OC)N(S(=O)(=O)c4c(C)noc4C)C2=NC(C(=O)OC)=C(C(=O)OC)[C@H]13 as the molecule, how does the “activity change, negative = inhibition” value read?
**A.** The value was inactive: -1.06%.

**Q.** For COC(=O)C1=C(C)N(Cc2ccccc2)C(=NCC2CC2)NC1c1cccc(C(F)(F)F)c1 (stereo not given), which Potency is on record?
**A.** The Potency was inconclusive: 1.69 µM [inhibitor, single point].

**Q.** For COC(=O)C1=C(C(=O)OC)[C@@H]2Nc3ccccc3[C@@]23C[C@@H](C(=O)OC)N(S(=O)(=O)c2ccc4c(c2)OCCN4C)C3=N1, which Potency is on record?
**A.** Its Potency is inconclusive: 1.51 µM [inhibitor, partial curve, poor fit].

**Q.** For COC(=O)C1=C(C(=O)OC)[C@@H]2N(C)c3ccccc3[C@@]23C[C@@H](C(=O)OC)N(S(=O)(=O)c2ccc(C(F)(F)F)cc2)C3=N1, which Potency is on record?
**A.** The Potency was inconclusive: 4.26 µM [inhibitor, single point].

**Q.** Which “activity change, negative = inhibition” value does the source give for COC(=O)N1[C@H]2CC[C@@]3(C)C=C(C)O[C@]1(C)C3c1ccccc12 here?
**A.** Its value is inactive: -1.31%.

**Q.** With C=CCN1c2ccccc2[C@]23C[C@@H](C(=O)OC)N(S(=O)(=O)c4ccc(C(F)(F)F)cc4)C2=NC(C(=O)OC)=C(C(=O)OC)[C@H]13 as the molecule, how does the Potency read?
**A.** The Potency was inconclusive: 4.26 µM [inhibitor, single point].

**Q.** Which Potency does the source give for COC(=O)C1=C(C(=O)OC)[C@@H]2N(C)c3ccccc3[C@@]23C[C@@H](C(=O)OC)N(S(=O)(=O)c2ccc(Br)cc2)C3=N1 here?
**A.** Its Potency is inconclusive: 4.26 µM [inhibitor, single point].

**Q.** Which Potency does the source give for CC#CCN1c2ccccc2[C@]23C[C@@H](C(=O)OC)N(C(=O)C4CCC4)C2=NC(C(=O)OC)=C(C(=O)OC)[C@H]13 here?
**A.** The Potency was inconclusive: 4.26 µM [inhibitor, single point].

**Q.** For COc1ccc(-c2nc3c(c4c2C[C@H](c2ccccc2)OC4)CN(C(=O)C2CCCCC2)CC3)c(C)c1, which Potency is on record?
**A.** Its Potency is inconclusive: 4.26 µM [inhibitor, single point].

**Q.** With C[C@H]1Cc2c(COc3ccccc3)nc3c(c2CO1)CN(C(=O)c1ccco1)CC3 as the molecule, how does the Potency read?
**A.** The Potency was inconclusive: 1.69 µM [inhibitor, single point].

**Q.** With C=CCN1c2ccccc2[C@]23C[C@@H](C(=O)OC)N(S(=O)(=O)c4ccc5c(c4)OCCN5C)C2=NC(C(=O)OC)=C(C(=O)OC)[C@H]13 as the molecule, how does the Potency read?
**A.** Its Potency is inconclusive: 4.26 µM [inhibitor, single point].

**Q.** For COC(=O)CC=C[C@@H](C)[C@H](O)c1ccccc1Br, which Potency is on record?
**A.** The Potency was inconclusive: 2.13 µM [inhibitor, single point] and inconclusive: 3.79 µM [inhibitor, partial curve, poor fit].

**Q.** Which “activity change, negative = inhibition” value does the source give for CC(CCN1CCc2nc(-c3ccccc3)c(-c3ccccc3)cc2C1)=NOC[C@@H](O)[C@H]1O[C@@H]2OC(C)(C)O[C@H]2[C@@H]1O here?
**A.** Its value is inactive: 0.651%.

**Q.** For COC(=O)CCC(=O)OC1(C)C(=O)C=C2C=C(C3CC3)N(CC3CC3)C=C2C1=O (stereo not given), which Potency is on record?
**A.** Its Potency is inconclusive: 4.26 µM [inhibitor, single point].

**Q.** For COC(=O)[C@@H]1CC[C@H](C)[C@@H](c2ccc(C)cc2)N1C(=O)c1ccc(C=NOC[C@@H](O)[C@H]2O[C@@H]3OC(C)(C)O[C@H]3[C@@H]2O)cc1, which “activity change, negative = inhibition” value is on record?
**A.** The value was inactive: 4.58%.

**Q.** With COC(=O)C1=C(C(=O)OC)[C@@H]2Nc3ccccc3[C@@]23C[C@@H](C(=O)OC)N(C(=O)CC(C)C)C3=N1 as the molecule, how does the Potency read?
**A.** The Potency was inconclusive: 0.0005 µM [activator].

**Q.** Which Potency does the source give for COc1ccc(-c2nc3c(c4c2C[C@H](c2ccccc2)OC4)CN(C(=O)c2ccco2)CC3)c(C)c1 here?
**A.** The Potency was inconclusive: 4.26 µM [inhibitor, partial curve, poor fit].

**Q.** Which Potency does the source give for COc1ccc(-c2nc3c(c4c2C[C@H](c2ccccc2)OC4)CN(S(=O)(=O)c2c(C)noc2C)CC3)c(C)c1 here?
**A.** The Potency was inconclusive: 3.38 µM [inhibitor, single point].

**Q.** Which Potency does the source give for COC(=O)C1=C(C(=O)OC)[C@@H]2Nc3ccccc3[C@@]23C[C@@H](C(=O)OC)N(S(=O)(=O)c2ccc(Br)cc2)C3=N1 here?
**A.** The Potency was inconclusive: 1.9 µM [inhibitor, single point].

**Q.** For COC(=O)C1=C(C(=O)OC)[C@@H]2Nc3ccccc3[C@@]23C[C@@H](C(=O)OC)N(S(=O)(=O)c2ccc([N+](=O)[O-])cc2)C3=N1, which Potency is on record?
**A.** Its Potency is inconclusive: 4.26 µM [inhibitor, single point].

**Q.** With CC#CCN1c2ccccc2[C@]23C[C@@H](C(=O)OC)N(C(=O)c4cc(C)oc4C)C2=NC(C(=O)OC)=C(C(=O)OC)[C@H]13 as the molecule, how does the Potency read?
**A.** Its Potency is inconclusive: 3.38 µM [inhibitor, partial curve, poor fit].

**Q.** With COC(=O)N1C2CC(=O)O[C@@H]3c4cc5c(cc4[C@]1(C)[C@@]3(Br)c1ccccc12)OCO5 as the molecule, how does the Potency read?
**A.** The Potency was active: 1.2 µM.

**Q.** Which Potency does the source give for CC#CCN1c2ccccc2[C@]23C[C@@H](C(=O)OC)N(S(=O)(=O)c4ccc(OC)cc4)C2=NC(C(=O)OC)=C(C(=O)OC)[C@H]13 here?
**A.** Its Potency is inconclusive: 1.9 µM [inhibitor, single point].

**Q.** With O=C(NN=C1C[C@@H](O)[C@H](O)[C@H]2[C@@H]3C(=O)N(Cc4ccc5c(c4)OCO5)C(=O)[C@@H]3CC[C@H]12)OCc1ccccc1 as the molecule, how does the Potency read?
**A.** Its Potency is inconclusive: 0.849 µM [inhibitor, partial curve, poor fit].

**Q.** For CCCCS(=O)(=O)N1CCc2nc(-c3ccccc3)c3c(c2C1)CO[C@@H](C)C3, which Potency is on record?
**A.** Its Potency is “inactive”.

**Q.** With CC#CCN1c2ccccc2[C@]23C[C@@H](C(=O)OC)N(S(=O)(=O)c4ccc(Br)cc4)C2=NC(C(=O)OC)=C(C(=O)OC)[C@H]13 as the molecule, how does the Potency read?
**A.** The Potency was inconclusive: 4.26 µM [inhibitor, single point].

**Q.** For COc1cc2c(c(OC)c1OC)[C@@]1(c3ccccc3)CCCCC[C@H]1[C@@H]2NC(=O)C(F)(F)F, which Potency is on record?
**A.** The Potency was inconclusive: 2.13 µM [inhibitor, partial curve, poor fit].
